From publication PMC12136788
The list shows a part of the results.

T1: UNK ZnF1-6 (called full-length) (human, UniProt Q9C0B0 30-357)
T1 sequence: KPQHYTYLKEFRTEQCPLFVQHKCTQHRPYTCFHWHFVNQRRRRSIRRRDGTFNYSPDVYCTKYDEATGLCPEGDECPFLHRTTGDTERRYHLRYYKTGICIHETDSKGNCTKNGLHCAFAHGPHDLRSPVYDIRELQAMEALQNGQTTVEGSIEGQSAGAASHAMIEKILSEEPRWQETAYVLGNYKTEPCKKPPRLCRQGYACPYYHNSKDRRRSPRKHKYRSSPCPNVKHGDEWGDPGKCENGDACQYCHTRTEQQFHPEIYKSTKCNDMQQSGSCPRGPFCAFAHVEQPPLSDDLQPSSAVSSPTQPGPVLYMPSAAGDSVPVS

B1: ENSG00000070961:be:win_1401|CDS|ENSG00000070961|bound_else_gene|NA|bound_elsewhere_windowed (ssRNA)
RNA: GGGAGUUCUACAGUCCGACGAUCAAAUGCUACAGCUAUUUGUUCAGAUAAAACAGGAACUUUGACAAUGAACAGAAUGACAGUCGUUCAAGCUUACAUAAAUGAAAAACAUUAUAAAAAGGUUCCUGAACCAGAAGCUAUUCCCAACAGAGGAUUGAGCAUCA
B2: chr7:6409910:6410025:-|CDS|ENSG00000164535|unk|total|mutant (ssRNA)
RNA: GGGAGUUCUACAGUCCGACGAUCCUCUGCUGCUCACUACCGCGCCAAGUGGUCACACGAAGCGGAAUUCAGCAAAAUACUCACCGGUCCGAAGAUGCUCACCGACCACAUGCCAGACAUCCUGAUGCGGGCCUUGGACAGCGUCAACAGAGGAUUGAGCAUCA
B3: chr2:169206329:169207250:-|CDS|ENSG00000081479|control|control|control (ssRNA)
RNA: GGGAGUUCUACAGUCCGACGAUCAACUGUCAUGUCUCUAGACUAUGACAGUGUAAGUGAUAGAAUCUACUUCACACAAAAUUUAGCCUCUGGAGUUGGACAGAUUUCCUAUGCCACCCUGUCUUCAGGGAUCCAUACUCCAACCAACAGAGGAUUGAGCAUCA
B4: chr17:57972098:57972209:-|3pUTR|ENSG00000136451|unk|FALSE|bound_elsewhere (ssRNA)
RNA: GGGAGUUCUACAGUCCGACGAUCCUAGAAUGUGGUUGUCAGAACCCUGAAAGUAUUAGUUCUAAAAAAAAAAAGAUAUAUACUAGAAGUAAUUGUUUUAUCAAUUCAUUGUAUAAUAAACAGGAGUGAGACUUCAUUGUAUGACAACAGAGGAUUGAGCAUCA
B5: chr16:18805221:18805325:-|3pUTR|ENSG00000157106|unk|total|mutant (ssRNA)
RNA: GGGAGUUCUACAGUCCGACGAUCAAGAAUUCUAUGUUCUGAAAUGCACACUUUCCGAAUGUUUUUCUUUGAAAACAGGCUAACCGUUUUUUCUUUUUUUGACAAAGUUUCAGCUCCUCUUUAAAGUUAUUGUGUCAUUUUUCUCAACAGAGGAUUGAGCAUCA
B6: ENSG00000107863:be:win_251|CDS|ENSG00000107863|bound_else_gene|NA|bound_elsewhere_windowed (ssRNA)
RNA: GGGAGUUCUACAGUCCGACGAUCAAAAUGGAAACAGAGGAGGAAAACAAAGAAACCGCUUGGAACCAAUGGAUACCAUAUUUGUUAAGCAAGUUAAAGAAGGAGGACCUGCUUUUGAAGCUGGAUUAUGUACAGGUGACCGAACAACAGAGGAUUGAGCAUCA
B7: ENSG00000198589:be:win_4901|CDS|ENSG00000198589|bound_else_gene|NA|bound_elsewhere_windowed (ssRNA)
RNA: GGGAGUUCUACAGUCCGACGAUCCAGAUGCAAUCAGCGAGGUGCUAUCUACUCUUUCUUUAGAAGUCAAUAAGUCUCCGGAAACCAAAAAUGAUAGAGGAAAUGACUUGGACACUAAGGCUACACCGUCAGUUUCAGUUUCAACAACAGAGGAUUGAGCAUCA
B8: ENSG00000070961:be:win_4201|3pUTR|ENSG00000070961|bound_else_gene|NA|bound_elsewhere_windowed (ssRNA)
RNA: GGGAGUUCUACAGUCCGACGAUCACUGCUGUAUUUUCAGGAAAAAAAAAAAAAGGGGUGUUUCUAUUGAAACUGUACUAAAUUUUUGCCUACAAUUUACCUUGUUAAAUAUUGUAGAUAAAUUGCUAAUACUAAUAGCCAAAUCAACAGAGGAUUGAGCAUCA
B9: chr1:56708525:56708626:+|3pUTR|ENSG00000162409|unk|FALSE|unique (ssRNA)
RNA: GGGAGUUCUACAGUCCGACGAUCACCUUUCUCAAAUUCUUUUUGCCUCUAUUUAUUUUUGCAUUUCACCAACAGUGAUAAAAUAGUUAAAUGAAACAAAGCAAAGUAUCAACAGUCCCUUAAAUGAGAAUCCUUAUCUUUGAUCAACAGAGGAUUGAGCAUCA
B10: ENSG00000196876:stop:overlap|stop_codon|ENSG00000196876|stop_codon|NA|stop_codon (ssRNA)
RNA: GGGAGUUCUACAGUCCGACGAUCCAGAGGAAGGAAGAAGGGAAAGAGCCAAAAGACAAAAAGAGGUCAGAGAAUCCAAGUGUUAGAGGAGAACAAAAAUUCAGUAUUAUACAGAUCUAAAACUCGCAAGUGAAAGAUUGUUUACAACAGAGGAUUGAGCAUCA
B11: ENSG00000141367:stop:overlap|stop_codon|ENSG00000141367|stop_codon|NA|stop_codon (ssRNA)
RNA: GGGAGUUCUACAGUCCGACGAUCAAGUAAUUGCACUGAAAGCAAAAUCGUGUGGUGGGAGCUAUGCAGCUAUAUUCUGUAGAUAGGAAAGUGUCUCAGCCCAUUGAAGGACAUGCAGCUAGCUUUGCACAGUUUAAGAUGGAACAACAGAGGAUUGAGCAUCA
B12: chr20:56369402:56369507:-|3pUTR|ENSG00000087586|unk|total|mutant (ssRNA)
RNA: GGGAGUUCUACAGUCCGACGAUCAGAAGAGGCCAUGUGUCUCAGAGCUGUUAAGGGCUUAUUUUUUUAAAACAUUGGAGUCACCGCAUGUGUGUAAACUUUAAAUAUGCAAAUAAAUAAGUAUCUAUGUCUGUGUGGAGUGCUCAACAGAGGAUUGAGCAUCA
B13: chr10:74136666:74136778:-|CDS|ENSG00000185009|unk|FALSE|unique (ssRNA)
RNA: GGGAGUUCUACAGUCCGACGAUCUUCAGAGGCUGCAAUUAAGGAUAAUGUGGUCAUAGUAUAUGAACUCUUAGAAGAAAUGUUAGACAAUGGAUUUCCACUGGCUACCGAAUCUAACAUUUUGAAAGAAUUGAUUAAACCACCCAACAGAGGAUUGAGCAUCA
B14: chr22:29695108:29695209:+|3pUTR|ENSG00000186575|msi1|FALSE|unique (ssRNA)
RNA: GGGAGUUCUACAGUCCGACGAUCGUGUGUGUGUGUCUUGCACUCCAGAGCUGACCUCCACCGCCCAGCCUGGGAAGUCAUUGUAGGGAGUGAGACACUGAAGCCCUGAGAAGCCAGUGCCAUCAUCCCCACCCCGCCCAGGGUCAACAGAGGAUUGAGCAUCA
B15: ENSG00000107863:be:win_5651|CDS|ENSG00000107863|bound_else_gene|NA|bound_elsewhere_windowed (ssRNA)
RNA: GGGAGUUCUACAGUCCGACGAUCCCACGACCGACACACCUUUGUCUCUUCAUUGCAACACAGGCAGUUCUUCCAGCACCUUGGCUUCAACAAACAGGCCCCUUCUUUCCAUACCACCACAGUCACCUGACCAAAUAAACGGAGCAACAGAGGAUUGAGCAUCA
B16: chr7:157539055:157540713:-|three_prime_utr|ENSG00000155093|control|control|control (ssRNA)
RNA: GGGAGUUCUACAGUCCGACGAUCACGGAUGUUGUCAGGAAUCAUGAUCUGACUUUAAUUGUGUGUCUUCUAUUAUAACUGCAUAGUAAUAGGGCCCUUAGCUCUCCCGUAGUCAGCGCAGUUUAGCAGUUAAAAGUGUAUUUUCAACAGAGGAUUGAGCAUCA
B17: chr14:59746188:59746291:-|CDS|ENSG00000139970|unk|total|mutant (ssRNA)
RNA: GGGAGUUCUACAGUCCGACGAUCCUGGGUACACCCGGCCCCUCCUUACCAGAUGUGCCUGGGACCGAGUCUCGUGGCUUAUUCCGUUCUGAUUCUGGAACCGAGAUGACUCCUGCAGAGUCCACGGAAGUGAACAAGAUCUUACAACAGAGGAUUGAGCAUCA
B18: ENSG00000113300:stop:overlap|stop_codon|ENSG00000113300|stop_codon|NA|stop_codon (ssRNA)
RNA: GGGAGUUCUACAGUCCGACGAUCUGGAGCUCUUACUGCCUUUCCUGCCCCAAGUCAACGGCAUCCACCUUCCUGGCAGGAGGUAGUCAAGCACCUUCAGAGGACAGCCUUGAUUCACUUGUAAACUUGUGAAAAUCUGAACAUCAACAGAGGAUUGAGCAUCA
B19: chr6:132680848:132683139:-|three_prime_utr|ENSG00000112299|control|control|control (ssRNA)
RNA: GGGAGUUCUACAGUCCGACGAUCGAUAAUUUAAAAAAUGAUGGAUGAGAAAAGAAAGAUUGGUCCGGGUUAAUAUUAUCCUCUAGUAUAAGUGAAUUACUAGUUUCUCUUUAUUUAGACAAACACACACACACCAGAUAAUAUCAACAGAGGAUUGAGCAUCA
B20: ENSG00000198589:be:win_8751|3pUTR|ENSG00000198589|bound_else_gene|NA|bound_elsewhere_windowed (ssRNA)
RNA: GGGAGUUCUACAGUCCGACGAUCGCUGCUGGGUUCUGUAGUUUUAAAAAAUCUAUAUUUUUAGUCAUAAUGAGAAGUCUAUUUUCACCAAUUAUGGAAACAUACAGUGGAGCAAGUAAACCACUUAUUCCAGCUAUAAUAUUACAACAGAGGAUUGAGCAUCA
B21: chr11:62152232:62152344:+|3pUTR|ENSG00000149503|unk|FALSE|unique (ssRNA)
RNA: GGGAGUUCUACAGUCCGACGAUCUGCUCUGUAAAUAGUUGUUUUAAUUUAGCUGAAUGUUAGCAUUUUAGUCUUUGGCAUUUUAGCGUUUGGGAGGUAGAUUAAUAAAGUAUAUUCCUUCAAGCCUGCUGUUGAUACCAUGAACAACAGAGGAUUGAGCAUCA
B22: chr11:125776112:125777381:-|three_prime_utr|ENSG00000196844|control|control|control (ssRNA)
RNA: GGGAGUUCUACAGUCCGACGAUCCACUACGCUCUUUUUCUCUUCCCUGAACCUGAAUUUUGCUCUCCUCUUCUAUGCAUUGGUAGAGAGUGAGAAAGCCAGCUCAUAGUGAAAAGACAAGCAGGCAUAAGGAGACGCAGUGUGCAACAGAGGAUUGAGCAUCA

biological target: T1, UNK ZnF1-6 (called full-length); test: nsRBNS (natural sequence RNA bind-n-seq); RBNS binding buffer (assumed for nsRBNS): 25 mM Tris pH 7.5, 150 mM KCl, 3 mM MgCl2, 0.01% Triton X-100, 500 ug/ml BSA, 20 U/ml SUPERase-In, 4 C; UNK is unkempt and MSI1 is Musashi-1; names of the RNAs are library labels; protein concentration not given here; high values mean tight binding

| Binder | binding signal |
| --- | --- |
| B1 | 0.274 enrichment R |
| B2 | 0.72 enrichment R |
| B3 | 0.474 enrichment R |
| B4 | 4.83 enrichment R |
| B5 | 0.554 enrichment R |
| B6 | 0.631 enrichment R |
| B7 | 0.408 enrichment R |
| B8 | 0.837 enrichment R |
| B9 | 0.947 enrichment R |
| B10 | 0.652 enrichment R |
| B11 | 3.79 enrichment R |
| B12 | 0.364 enrichment R |
| B13 | 0.63 enrichment R |
| B14 | 0.743 enrichment R |
| B15 | 0.607 enrichment R |
| B16 | 3.45 enrichment R |
| B17 | 0.531 enrichment R |
| B18 | 21.5 enrichment R |
| B19 | 5.67 enrichment R |
| B20 | 3.47 enrichment R |
| B21 | 110 enrichment R |
| B22 | 0.574 enrichment R |
